# Data as given in the supplement of paper PMC8728848.
# This is one part of the list.
# B1: Gal 3 (Homo sapiens), P17931 (protein)
# chain: MADNFSLHDALSGSGNPNPQGWPGAWGNQPAGAGGYPGASYPGAYPGQAPPGAYPGQAPPGAYHGAPGAYPGAPAPGVYPGPPSGPGAYPSSGQPSAPGAYPATGPYGAPAGPLIVPYNLPLPGGVVPRMLITILGTVKPNANILDFQRGNDVAFHFNPRFNENNRRVIVCNTKLDNNWGREESQSVFPFESGKPFKIQVLVEPDHFKVAVNDAHLLQYNHRVKKLNEISKLGISGDIDLTSASYTMI
# How the values were obtained:
# Assay in all cases: glycan array binding signal (z-score within array); higher = stronger binding
# Details in all cases: glycan notation: IUPAC condensed, linker removed; mutation: R186S
# [1] = target: Man(a1-2)Man(a1-3)[Man(a1-2)Man(a1-6)]Man
# Summary of the method: (§1)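 Glycan array data came from 3228 arrays in the Consortium for Functional Glycomics database, and only arrays with an available protein sequence were kept. Glycan names were put into IUPAC-condensed notation, and columns mapping to the same glycan were averaged. The binding signal is a within-array Z-score, averaged across arrays of one protein sequence run at different concentrations or buffers and across linkers. A negative Z-score can be read as non-binding.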
# [2] = target: Man(a1-2)Man(a1-3)[Man(a1-2)Man(a1-6)]Man(a1-6)[Man(a1-2)Man(a1-2)Man(a1-3)]Man
# Summary of the method: as §1
# [3] = target: Man(a1-2)Man(a1-3)[Man(a1-2)Man(a1-6)]Man(a1-6)[Man(a1-2)Man(a1-2)Man(a1-3)]Man(b1-4)GlcNAc(b1-4)GlcNAc
# Summary of the method: as §1
# [4] = target: Man(a1-2)Man(a1-3)[Man(a1-6)]Man(a1-6)[Man(a1-2)Man(a1-3)]Man(b1-4)GlcNAc(b1-4)GlcNAc
# Summary of the method: as §1
# [5] = target: Man(a1-2)Man(a1-6)[Man(a1-3)]Man(a1-6)[Man(a1-2)Man(a1-2)Man(a1-3)]Man
# Summary of the method: as §1
# [6] = target: Man(a1-2)Man(a1-6)[Man(a1-3)]Man(a1-6)[Man(a1-2)Man(a1-2)Man(a1-3)]Man(b1-4)GlcNAc(b1-4)GlcNAc
# Summary of the method: as §1
# [7] = target: Man(a1-3)[Man(a1-6)]Man
# Summary of the method: as §1
# [8] = target: Man(a1-3)[Man(a1-6)]Man(a1-6)[Man(a1-2)Man(a1-3)]Man(b1-4)GlcNAc(b1-4)GlcNAc
# Summary of the method: as §1
# [9] = target: Man(a1-3)[Man(a1-6)]Man(a1-6)[Man(a1-3)]Man
# Summary of the method: as §1
# [10] = target: Man(a1-3)[Man(a1-6)]Man(a1-6)[Man(a1-3)]Man(b1-4)GlcNAc(b1-4)GlcNAc
# Summary of the method: as §1
# [11] = target: Man(a1-3)[Man(a1-6)]Man(b1-4)GlcNAc(b1-4)GlcNAc
# Summary of the method: as §1
# [12] = target: Man(a1-6)Man
# Summary of the method: as §1
# [13] = target: Man(b1-4)GlcNAc
# Summary of the method: as §1
# [14] = target: Neu5Ac(a2-3)Gal
# Summary of the method: as §1
# [15] = target: Neu5Ac(a2-3)Gal(b1-3)GalNAc
# Summary of the method: as §1
# [16] = target: Neu5Ac(a2-3)Gal(b1-3)GalNAc(b1-3)Gal(a1-4)Gal(b1-4)Glc
# Summary of the method: as §1
# [17] = target: Neu5Ac(a2-3)Gal(b1-3)GalNAc(b1-4)[Neu5Ac(a2-3)]Gal(b1-4)Glc
# Summary of the method: as §1
# [18] = target: Neu5Ac(a2-3)Gal(b1-3)GalNAc6S
# Summary of the method: as §1
# [19] = target: Neu5Ac(a2-3)Gal(b1-3)GlcNAc
# Summary of the method: as §1
# [20] = target: Neu5Ac(a2-3)Gal(b1-3)GlcNAc(b1-2)Man(a1-3)[Neu5Ac(a2-3)Gal(b1-3)GlcNAc(b1-2)Man(a1-6)]Man(b1-4)GlcNAc(b1-4)GlcNAc
# Summary of the method: as §1
# [21] = target: Neu5Ac(a2-3)Gal(b1-3)GlcNAc(b1-3)Gal(b1-3)GlcNAc
# Summary of the method: as §1
# [22] = target: Neu5Ac(a2-3)Gal(b1-3)GlcNAc(b1-3)Gal(b1-4)GlcNAc
# Summary of the method: as §1
# [23] = target: Neu5Ac(a2-3)Gal(b1-3)GlcNAc(b1-3)GalNAc
# Summary of the method: as §1
# [24] = target: Neu5Ac(a2-3)Gal(b1-3)GlcNAc6S
# Summary of the method: as §1
# [25] = target: Neu5Ac(a2-3)Gal(b1-3)[Fuc(a1-4)]GlcNAc
# Summary of the method: as §1
# [26] = target: Neu5Ac(a2-3)Gal(b1-3)[Fuc(a1-4)]GlcNAc(b1-3)Gal(b1-3)[Fuc(a1-4)]GlcNAc
# Summary of the method: as §1
# [27] = target: Neu5Ac(a2-3)Gal(b1-3)[Fuc(a1-4)]GlcNAc(b1-3)Gal(b1-4)[Fuc(a1-3)]GlcNAc
# Summary of the method: as §1
# [28] = target: Neu5Ac(a2-3)Gal(b1-3)[Neu5Ac(a2-3)Gal(b1-4)]GlcNAc
# Summary of the method: as §1
# [29] = target: Neu5Ac(a2-3)Gal(b1-3)[Neu5Ac(a2-6)]GalNAc
# Summary of the method: as §1
# [30] = target: Neu5Ac(a2-3)Gal(b1-4)Glc
# Summary of the method: as §1
# [31] = target: Neu5Ac(a2-3)Gal(b1-4)GlcNAc
# Summary of the method: as §1
# [32] = target: Neu5Ac(a2-3)Gal(b1-4)GlcNAc(b1-2)Man(a1-3)[GlcNAc(b1-2)Man(b1-4)GlcNAc(b1-2)Man(a1-6)]Man(b1-4)GlcNAc(b1-4)GlcNAc
# Summary of the method: as §1
# [33] = target: Neu5Ac(a2-3)Gal(b1-4)GlcNAc(b1-2)Man(a1-3)[Neu5Ac(a2-6)Gal(b1-4)GlcNAc(b1-2)Man(a1-6)]Man(b1-4)GlcNAc(b1-4)GlcNAc
# Summary of the method: as §1
# [34] = target: Neu5Ac(a2-3)Gal(b1-4)GlcNAc(b1-3)Gal(b1-3)GlcNAc
# Summary of the method: as §1
# [35] = target: Neu5Ac(a2-3)Gal(b1-4)GlcNAc(b1-3)Gal(b1-4)GlcNAc
# Summary of the method: as §1
# [36] = target: Neu5Ac(a2-3)Gal(b1-4)GlcNAc(b1-3)Gal(b1-4)GlcNAc(b1-3)Gal(b1-4)GlcNAc
# Summary of the method: as §1
# [37] = target: Neu5Ac(a2-3)Gal(b1-4)GlcNAc(b1-3)Gal(b1-4)[Fuc(a1-3)]GlcNAc
# Summary of the method: as §1
# [38] = target: Neu5Ac(a2-3)Gal(b1-4)GlcNAc(b1-3)GalNAc
# Summary of the method: as §1
# [39] = target: Neu5Ac(a2-3)Gal(b1-4)GlcNAc(b1-6)[Gal(b1-3)]GalNAc
# Summary of the method: as §1
# [40] = target: Neu5Ac(a2-3)Gal(b1-4)GlcNAc(b1-6)[Neu5Ac(a2-3)Gal(b1-3)]GalNAc
# Summary of the method: as §1
# [41] = target: Neu5Ac(a2-3)Gal(b1-4)GlcNAc6S
# Summary of the method: as §1
# [42] = target: Neu5Ac(a2-3)Gal(b1-4)[Fuc(a1-3)]GlcNAc
# Summary of the method: as §1
# [43] = target: Neu5Ac(a2-3)Gal(b1-4)[Fuc(a1-3)]GlcNAc(b1-3)Gal
# Summary of the method: as §1
# [44] = target: Neu5Ac(a2-3)Gal(b1-4)[Fuc(a1-3)]GlcNAc(b1-3)Gal(b1-4)GlcNAc
# Summary of the method: as §1
# [45] = target: Neu5Ac(a2-3)Gal(b1-4)[Fuc(a1-3)]GlcNAc(b1-3)Gal(b1-4)[Fuc(a1-3)]GlcNAc(b1-3)Gal(b1-4)[Fuc(a1-3)]GlcNAc
# Summary of the method: as §1
# [46] = target: Neu5Ac(a2-3)Gal(b1-4)[Fuc(a1-3)]GlcNAc(b1-3)GalNAc
# Summary of the method: as §1
# [47] = target: Neu5Ac(a2-3)Gal(b1-4)[Fuc(a1-3)]GlcNAc(b1-6)[Gal(b1-3)]GalNAc
# Summary of the method: as §1
# [48] = target: Neu5Ac(a2-3)Gal(b1-4)[Fuc(a1-3)]GlcNAc(b1-6)[Neu5Ac(a2-3)Gal(b1-3)]GalNAc
# Summary of the method: as §1
# [49] = target: Neu5Ac(a2-3)Gal(b1-4)[Fuc(a1-3)]GlcNAc6S
# Summary of the method: as §1
# [50] = target: Neu5Ac(a2-3)Gal6S(b1-4)GlcNAc
# Summary of the method: as §1
binder,measurement,setting,value
B1,glycan array binding signal (z-score),[1],-0.05
same,glycan array binding signal (z-score),[2],-0.058
same,glycan array binding signal (z-score),[3],-0.078
same,glycan array binding signal (z-score),[4],-0.1
same,glycan array binding signal (z-score),[5],-0.069
same,glycan array binding signal (z-score),[6],-0.034
same,glycan array binding signal (z-score),[7],-0.071
same,glycan array binding signal (z-score),[8],-0.063
same,glycan array binding signal (z-score),[9],-0.062
same,glycan array binding signal (z-score),[10],-0.04
same,glycan array binding signal (z-score),[11],-0.039
same,glycan array binding signal (z-score),[12],-0.04
same,glycan array binding signal (z-score),[13],-0.058
same,glycan array binding signal (z-score),[14],-0.061
same,glycan array binding signal (z-score),[15],-0.069
same,glycan array binding signal (z-score),[16],0.003
same,glycan array binding signal (z-score),[17],-0.089
same,glycan array binding signal (z-score),[18],-0.065
same,glycan array binding signal (z-score),[19],-0.051
same,glycan array binding signal (z-score),[20],-0.094
same,glycan array binding signal (z-score),[21],-0.068
same,glycan array binding signal (z-score),[22],-0.069
same,glycan array binding signal (z-score),[23],-0.085
same,glycan array binding signal (z-score),[24],-0.09
same,glycan array binding signal (z-score),[25],-0.081
same,glycan array binding signal (z-score),[26],-0.045
same,glycan array binding signal (z-score),[27],-0.082
same,glycan array binding signal (z-score),[28],-0.076
same,glycan array binding signal (z-score),[29],-0.054
same,glycan array binding signal (z-score),[30],-0.06
same,glycan array binding signal (z-score),[31],-0.058
same,glycan array binding signal (z-score),[32],-0.063
same,glycan array binding signal (z-score),[33],-0.027
same,glycan array binding signal (z-score),[34],-0.076
same,glycan array binding signal (z-score),[35],-0.071
same,glycan array binding signal (z-score),[36],-0.046
same,glycan array binding signal (z-score),[37],-0.104
same,glycan array binding signal (z-score),[38],-0.038
same,glycan array binding signal (z-score),[39],-0.094
same,glycan array binding signal (z-score),[40],-0.051
same,glycan array binding signal (z-score),[41],-0.006
same,glycan array binding signal (z-score),[42],-0.059
same,glycan array binding signal (z-score),[43],-0.065
same,glycan array binding signal (z-score),[44],-0.014
same,glycan array binding signal (z-score),[45],-0.095
same,glycan array binding signal (z-score),[46],0.182
same,glycan array binding signal (z-score),[47],-0.033
same,glycan array binding signal (z-score),[48],-0.027
same,glycan array binding signal (z-score),[49],-0.075
same,glycan array binding signal (z-score),[50],-0.05
